Some of the results follow.

For the assay, the system named is PfAP2-HC AP2 domain (GST-tagged). Description: gcPBM binding intensity (ln(normalized median fluorescence intensity)); higher = stronger DNA binding. The gist of the method: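 GST-tagged P. falciparum DNA-binding domains, expressed in E. coli (about 25 μg on average), were applied for 1 h to an Agilent 4 × 180k array of primer-extended double-stranded 36-bp intergenic genomic probes plus negative controls. The binding buffer was 1× PBS with 1% milk, 0.2 mg/ml BSA, 0.5% salmon testes DNA and 0.03% Triton X-100. Bound protein was detected with Alexa488 anti-GST antibody and scanned at 488 nm. Binding intensity is the highest Masliner-normalised natural-log median intensity across replicate spots of either probe orientation.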
As to “CTATTTTTTGTATAAACATGCATATAGTAGATATGG [TGCATGCA_site670]”, the “gcPBM binding intensity (ln)” value was found to be 9.47. In the case of “TTTAATATTTTTTTTTGTACTTATTTGTAGAAATAT [XGTACX_site3046]”, the “gcPBM binding intensity (ln)” value was determined as 9.56. The value for “AGGCTCATTTTTTTTAGTACATCAAAAAAAAAAAAA [TGCATGCA_negctrl_site591]” was 9.1; that for “TTTTACATATACATGTGTACATAACAAAGAATGTTT [XGTACX_site2406]” was 9.68. Then “CGCATGTATTTTGTGTGTACTAATTATAATCAACTT [XGTACX_site4709]”, with 10; and “TAATATTGTATTTATGTACACACATTTTTGGAATAT [CACACA_site8371]”, with 9.84. The value for “AGTGTATTAATTCTCACACACTAAGAAAAAAAAAAA [CACACA_site6007]” was 9.78. As for “TTTTTTAATAAATGGTGTACATATTTTTTTTATACT [XGTACX_site8584]”, the “gcPBM binding intensity (ln)” value turned out to be 9.66. For “ATTCATAATATTATAACACACGCTTATTACATAAAG [CACACA_site980]”, the “gcPBM binding intensity (ln)” value was 9.61. The value for “ATATATATATATATGTGTACATATGTATATATATCT [XGTACX_site2930]” was 9.9. The value for “CCCATGTAATGAACATGTACATAATAATTTATAAAT [XGTACX_site8687]” was 9.45; that for “AGATGGAGAAAGTTATGTACACATATATAAATATGT [XGTACX_site6150]” was 9.68. Then “TATATACATATGTGATGTACATTTTTTGTAATATAA [XGTACX_site6985]”, with 9.49; and “TAACACATATATTGTTGTACATTCAAACTGAAAAAT [XGTACX_site5565]”, with 9.61. For “TTTTTTTTATTAAAAAGTACTAAACAAATTATATAT [XGTACX_site121]”, the “gcPBM binding intensity (ln)” value came out at 9.36. Then “CCATAACTCATATGCACACATAAATATTACATATAT [CACACA_site3821]”, with 10.1; and “TTTTAAAAAGAAAAAAATAACATACATATATATATA [CACACA_negctrl_site240]”, with 9.38; and “ATGTCTACAGTTTTTGCACACATATAAATAAAAAAA [CACACA_site3600]”, with 9.77. Then “ATTTTTTTTTTTTTTTTTTTTGAGAAGAACTTTTTC [CACACA_negctrl_site1019]”, with 9.26; and “AAACATCATAAATATACACACATATTTATATTTATA [CACACA_site6437]”, with 9.79. Then “TCAAACGGTTAAATATGTACATATATATATATATAT [XGTACX_site2339]”, with 9.74; and “AAAAAAAAAAGACACACACACATATAAATATAAATA [CACACA_site6899]”, with 11.5.

Turning to “ACTCATAAAAATAGATGTACTTTAATAATTTGATTT [XGTACX_site8763]”, the “gcPBM binding intensity (ln)” value was 9.48. Then “GTACATACATAAAACACACACATATAGATTTATATA [CACACA_site6945]”, with 10.4; and AGTGTGTGTAATAAAGTGCATTAAAAATGACACGTA, with 10.4. The value for ACCCACTTTTGAGGTGTGCACAATAAATTGGACATT was 9.67; that for “ATATATATTTAAACTACACACGCATATCTTAGAAAT [CACACA_site8348]” was 10.1. Then “TAAGAGATATTTTATTAAATGTTTTATGAATCATGT [TGCATGCA_negctrl_site264]”, with 9.35.

In the case of “AGGAAAAAAAAAATGACACACATATTTGAATTAAAA [CACACA_site1352]”, the “gcPBM binding intensity (ln)” value was found to be 9.8. “TATTAATAAAAGCATTGTACAGTAATAAATAAATAA [XGTACX_site2924]”: the “gcPBM binding intensity (ln)” value came to 9.6.

Consider “TATATATATAAACACACACACACCAAAGCGTAGCGC [CACACA_site7903]”, for which the “gcPBM binding intensity (ln)” value was determined as 10.4. For “AGCCATTAATTCTCTACACACCTTTATGTTATTTAG [CACACA_site3635]”, the “gcPBM binding intensity (ln)” value was 9.89. Turning to “ATATTAAAATGAAAATATAAAAAAAAAAAAAAAAAA [CACACA_negctrl_site1559]”, the “gcPBM binding intensity (ln)” value is 9.01. The value for “CAATCAAATAGACACACACACACCTAAACATAAAAG [CACACA_site7322]” was 11.1; that for “AAGGAAATATAATATACACACATAAGTGTACTTCTA [CACACA_site6079]” was 9.81. Then “TTGTATTCATAACAACGTACATATTTTGTAACTAAA [XGTACX_site4029]”, with 9.49; and “TTTCAAACAAAAAGACGTACACTGAAGTTATCCGTC [XGTACX_site8824]”, with 9.24; and “ATACAAATTTATATTTCACACATTATTATATACTTA [CACACA_site6034]”, with 9.82.

Take “TCTGAAAATTAGAAAAGTACAAAATGGTATAGGAAA [XGTACX_site4396]”: the “gcPBM binding intensity (ln)” value worked out at 9.65. Then “TGTATTATATATGTGTGTACATATTTTTTTTTTTTT [XGTACX_site3351]”, with 9.85; and “ATATATATATATAAATGTACAGGCTTATCTCTTATT [XGTACX_site1828]”, with 9.75; and “AAATTATTTCAAATGTTGCACTAAAAATAAAATTAT [GTGCAC_site9460]”, with 9.46. As to “TTTTATCAATAAATTCGTACACATGAACTAGAGAGT [XGTACX_site5758]”, the “gcPBM binding intensity (ln)” value turned out to be 9.5. Then “TACATTCTAATAATTGCACACTGGTTATTAAAAGGA [CACACA_site1614]”, with 9.6.

The values above are taken from the supplement of paper PMC11417369.
